# Measured values as given in the supplement of paper PMC8728848.
# The list shows a part of the results.
# Key:
# Assay in all cases: glycan array binding signal (z-score within array); higher = stronger binding
# Conditions in all cases: glycan notation: IUPAC condensed, linker removed
# [1] = target: Neu5Ac(a2-6)Gal(b1-4)GlcNAc(b1-3)Gal(b1-4)GlcNAc(b1-3)GalNAc
# How it was run: (§1)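 Columns mapping to the same glycan were averaged after glycan names were converted to IUPAC-condensed notation. The data come from 3228 arrays in the Consortium for Functional Glycomics database, limited to those with an available protein sequence. Binding is reported as a within-array Z-score averaged across arrays of one protein sequence and across linkers.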
# [2] = target: Neu5Ac(a2-6)Gal(b1-4)GlcNAc(b1-3)Gal(b1-4)GlcNAc(b1-3)[Neu5Ac(a2-6)Gal(b1-4)GlcNAc(b1-3)Gal(b1-4)GlcNAc(b1-6)]GalNAc
# How it was run: as §1
# [3] = target: Neu5Ac(a2-6)Gal(b1-4)GlcNAc(b1-3)Gal(b1-4)GlcNAc(b1-6)[Gal(b1-3)]GalNAc
# How it was run: as §1
# [4] = target: Neu5Ac(a2-6)Gal(b1-4)GlcNAc(b1-3)Gal(b1-4)[Fuc(a1-3)]GlcNAc(b1-3)Gal(b1-4)[Fuc(a1-3)]GlcNAc
# How it was run: as §1
# [5] = target: Neu5Ac(a2-6)Gal(b1-4)GlcNAc(b1-3)GalNAc
# How it was run: as §1
# [6] = target: Neu5Ac(a2-6)Gal(b1-4)GlcNAc(b1-3)[Neu5Ac(a2-6)Gal(b1-4)GlcNAc(b1-6)]GalNAc
# How it was run: as §1
# [7] = target: Neu5Ac(a2-6)Gal(b1-4)GlcNAc(b1-6)GalNAc
# How it was run: as §1
# [8] = target: Neu5Ac(a2-6)Gal(b1-4)GlcNAc(b1-6)[Gal(b1-3)GlcNAc(b1-3)]Gal(b1-4)Glc
# How it was run: as §1
# [9] = target: Neu5Ac(a2-6)Gal(b1-4)GlcNAc(b1-6)[Gal(b1-3)]GalNAc
# How it was run: as §1
# [10] = target: Neu5Ac(a2-6)Gal(b1-4)GlcNAc6S
# How it was run: as §1
# Neu5Ac(a2-6)GalNAc = target: Neu5Ac(a2-6)GalNAc
# How it was run: as §1
# [11] = target: Neu5Ac(a2-6)GalNAc(b1-4)GlcNAc
# How it was run: as §1
# [12] = target: Neu5Ac(a2-6)GalNAc(b1-4)GlcNAc6S
# How it was run: as §1
# [13] = target: Neu5Ac(a2-6)GlcNAc(b1-4)GlcNAc
# How it was run: as §1
# [14] = target: Neu5Ac(a2-6)GlcNAc(b1-4)GlcNAc(b1-4)GlcNAc
# How it was run: as §1
# Neu5Ac(a2-8)Neu5Ac = target: Neu5Ac(a2-8)Neu5Ac
# How it was run: as §1
# [15] = target: Neu5Ac(a2-8)Neu5Ac(a2-3)Gal(b1-3)GalNAc(b1-4)[Neu5Ac(a2-3)]Gal(b1-4)Glc
# How it was run: as §1
# [16] = target: Neu5Ac(a2-8)Neu5Ac(a2-3)Gal(b1-3)GalNAc(b1-4)[Neu5Ac(a2-8)Neu5Ac(a2-3)]Gal(b1-4)Glc
# How it was run: as §1
# [17] = target: Neu5Ac(a2-8)Neu5Ac(a2-3)Gal(b1-4)Glc
# How it was run: as §1
# [18] = target: Neu5Ac(a2-8)Neu5Ac(a2-3)Gal(b1-4)GlcNAc
# How it was run: as §1
# [19] = target: Neu5Ac(a2-8)Neu5Ac(a2-3)[Gal(b1-3)GalNAc(b1-4)]Gal(b1-4)Glc
# How it was run: as §1
# [20] = target: Neu5Ac(a2-8)Neu5Ac(a2-3)[GalNAc(b1-4)]Gal(b1-4)Glc
# How it was run: as §1
# [21] = target: Neu5Ac(a2-8)Neu5Ac(a2-8)Neu5Ac
# How it was run: as §1
# [22] = target: Neu5Ac(a2-8)Neu5Ac(a2-8)Neu5Ac(a2-3)Gal(b1-4)Glc
# How it was run: as §1
# [23] = target: Neu5Ac(a2-8)Neu5Ac(a2-8)Neu5Ac(a2-3)[Gal(b1-3)GalNAc(b1-4)]Gal(b1-4)Glc
# How it was run: as §1
# [24] = target: Neu5Ac(a2-8)Neu5Ac(a2-8)Neu5Ac(a2-3)[GalNAc(b1-4)]Gal(b1-4)Glc
# How it was run: as §1
# [25] = target: Neu5Ac(a2-8)Neu5Ac(a2-8)Neu5Ac(a2-8)Neu5Ac(a2-3)[GalNAc(b1-4)]Gal(b1-4)Glc
# How it was run: as §1
# [26] = target: Neu5Ac(a2-8)Neu5Gc(a2-3)Gal(b1-4)GlcNAc
# How it was run: as §1
# [27] = target: Neu5Ac(b2-6)Gal(b1-4)GlcNAc
# How it was run: as §1
# Neu5Ac(b2-6)GalNAc = target: Neu5Ac(b2-6)GalNAc
# How it was run: as §1
# [28] = target: Neu5Ac9Ac(a2-3)Gal(b1-3)GlcNAc
# How it was run: as §1
# [29] = target: Neu5Ac9Ac(a2-3)Gal(b1-4)GlcNAc
# How it was run: as §1
# [30] = target: Neu5Ac9Ac(a2-6)Gal(b1-4)GlcNAc
# How it was run: as §1
# [31] = target: Neu5Gc(a2-3)Gal(b1-3)GlcNAc
# How it was run: as §1
# [32] = target: Neu5Gc(a2-3)Gal(b1-3)[Fuc(a1-4)]GlcNAc
# How it was run: as §1
# Neu5Gc(a2-3)Gal(b1-4)Glc = target: Neu5Gc(a2-3)Gal(b1-4)Glc
# How it was run: as §1
# [33] = target: Neu5Gc(a2-3)Gal(b1-4)GlcNAc
# How it was run: as §1
# [34] = target: Neu5Gc(a2-3)Gal(b1-4)GlcNAc(b1-3)Gal(b1-4)GlcNAc(b1-2)Man(a1-3)[Neu5Gc(a2-3)Gal(b1-4)GlcNAc(b1-3)Gal(b1-4)GlcNAc(b1-2)Man(a1-6)]Man(b1-4)GlcNAc(b1-4)GlcNAc
# How it was run: as §1
# [35] = target: Neu5Gc(a2-3)Gal(b1-4)[Fuc(a1-3)]GlcNAc
# How it was run: as §1
# [36] = target: Neu5Gc(a2-6)Gal(b1-4)GlcNAc
# How it was run: as §1
# Neu5Gc(a2-6)GalNAc = target: Neu5Gc(a2-6)GalNAc
# How it was run: as §1
# [37] = target: Neu5Gc(a2-8)Neu5Ac(a2-3)Gal(b1-4)GlcNAc
# How it was run: as §1
# [38] = target: Neu5Gc(a2-8)Neu5Gc(a2-3)Gal(b1-4)GlcNAc
# How it was run: as §1
# [39] = target: Neu5Gc(a2-8)Neu5Gc(a2-3)Gal(b1-4)GlcNAc(b1-3)Gal(b1-4)GlcNAc
# How it was run: as §1
# [40] = target: Neu5Gc(a2-8)Neu5Gc(a2-6)Gal(b1-4)GlcNAc
# How it was run: as §1
# [41] = target: Neu5Gc(b2-6)Gal(b1-4)GlcNAc
# How it was run: as §1
binder,measurement,setting,value
MpAFP NterminalRI GFP (Marinomonas primoryensis) (protein) MSDNQFPFATLGNAIGFITKLDGSVTVQSIDGQERVLKLGDPIFFGETVLTGGSGSVTIAFVDGTDVVIGGDSIVEMTDEIYNTGDNEDLVADSSSEIDALQNAILAGDDPTLIQDAPAAGNTLADQQRVDVSIERNDNSAQAGFGVDTQSSLPTYGYDTDNGNGGQATEREYSAPSLSRTLNQSPLLEHHHHHH,glycan array binding signal (z-score),[1],-0.295
same,glycan array binding signal (z-score),[2],-0.027
same,glycan array binding signal (z-score),[3],-0.349
same,glycan array binding signal (z-score),[4],-0.212
same,glycan array binding signal (z-score),[5],-0.371
same,glycan array binding signal (z-score),[6],-0.449
same,glycan array binding signal (z-score),[7],0.027
same,glycan array binding signal (z-score),[8],-0.149
same,glycan array binding signal (z-score),[9],-0.144
same,glycan array binding signal (z-score),[10],-0.409
same,glycan array binding signal (z-score),Neu5Ac(a2-6)GalNAc,-0.388
same,glycan array binding signal (z-score),[11],-0.549
same,glycan array binding signal (z-score),[12],-0.222
same,glycan array binding signal (z-score),[13],-0.431
same,glycan array binding signal (z-score),[14],0.523
same,glycan array binding signal (z-score),Neu5Ac(a2-8)Neu5Ac,0.07
same,glycan array binding signal (z-score),[15],-0.112
same,glycan array binding signal (z-score),[16],0.212
same,glycan array binding signal (z-score),[17],-0.539
same,glycan array binding signal (z-score),[18],-0.655
same,glycan array binding signal (z-score),[19],1.25
same,glycan array binding signal (z-score),[20],-0.501
same,glycan array binding signal (z-score),[21],-0.407
same,glycan array binding signal (z-score),[22],-0.492
same,glycan array binding signal (z-score),[23],0.033
same,glycan array binding signal (z-score),[24],-0.426
same,glycan array binding signal (z-score),[25],-0.367
same,glycan array binding signal (z-score),[26],-0.569
same,glycan array binding signal (z-score),[27],-0.852
same,glycan array binding signal (z-score),Neu5Ac(b2-6)GalNAc,-0.612
same,glycan array binding signal (z-score),[28],0.857
same,glycan array binding signal (z-score),[29],-0.521
same,glycan array binding signal (z-score),[30],-0.359
same,glycan array binding signal (z-score),[31],-0.652
same,glycan array binding signal (z-score),[32],-0.448
same,glycan array binding signal (z-score),Neu5Gc(a2-3)Gal(b1-4)Glc,1.62
same,glycan array binding signal (z-score),[33],-0.632
same,glycan array binding signal (z-score),[34],0.492
same,glycan array binding signal (z-score),[35],-0.165
same,glycan array binding signal (z-score),[36],1.19
same,glycan array binding signal (z-score),Neu5Gc(a2-6)GalNAc,3.75
same,glycan array binding signal (z-score),[37],-0.41
same,glycan array binding signal (z-score),[38],-0.564
same,glycan array binding signal (z-score),[39],-0.52
same,glycan array binding signal (z-score),[40],-0.596
same,glycan array binding signal (z-score),[41],-0.493
